About 2,100 (0.72%) of roughly 290,000 compounds were called active. Not shown: some 4% with an inconclusive outcome. Calls follow the shape of the dose curve; as a rule, active = well fitted inhibition curve with a large enough effect; inconclusive = small, poorly fitted or top-dose-only effect, or effect the other way; inactive = flat fitted curve, though single readings scatter. The entries are a selection whose mix differs from that of the whole data set. More than one record can exist for a structure, and the calls need not agree.
What follows are compounds tested against Fructose-bisphosphate aldolase (Giardia intestinalis (strain ATCC 50803 / WB clone C6)) (UniProt A8B2U2) (assay: qHTS Assay for Inhibitors of Fructose-1,6-bisphosphate Aldolase from Giardia Lamblia). Conditions: purified Giardia FBPA; series mostly up to 59.6 µM; activity, negative = inhibition: at the top concentration.
UniProt A8B2U2, sequence (A8B2U2 whole entry, looked up): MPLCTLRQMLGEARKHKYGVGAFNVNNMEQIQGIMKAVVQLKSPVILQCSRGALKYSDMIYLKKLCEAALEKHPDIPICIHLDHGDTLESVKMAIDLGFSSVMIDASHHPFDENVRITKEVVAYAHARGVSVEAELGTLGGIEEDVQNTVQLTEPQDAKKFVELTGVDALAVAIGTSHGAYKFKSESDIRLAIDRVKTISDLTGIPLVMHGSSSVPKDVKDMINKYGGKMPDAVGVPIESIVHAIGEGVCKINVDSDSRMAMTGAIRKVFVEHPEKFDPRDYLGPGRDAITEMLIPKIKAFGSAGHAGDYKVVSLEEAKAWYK
Text: Assay Provider: Osnat Herzberg, University of Maryland
The objective of this project is to obtain compounds that inhibit Giardia lamblia growth. G. lamblia is a human pathogen which afflicts impoverished nations; it is the most common cause of outbreaks of diarrhea in the United States. During the course of our study of potential drug targets in Giardia, we have identified the Class II (Zn2+ functions in electrophilic catalysis) fructose-1,6-bisphosphate aldolase (FBPA) as an excellent candidate for drug targeting. FBPA is a key glycolytic pathway enzyme, essential for G. lamblia survival. The human FBPA belongs to the Class I aldolases, which have a different substrate binding site structure and a radically different catalytic mechanism (employing a lysine-Schiff base intermediate). Therefore, affinity-based or mechanism-based inhibitors of the Giardia FBPA are expected not to interfere with the catalytic function of the human FBPA.
A glyceraldehyde-3-phosphate dehydrogenase/triose phosphate isomerase/NAD/arsenate coupled assay was adapted to the 1536-well HTP format for use in the primary screen. This was done by coupling it to a diaphorase/resazurin/resorufin reaction that can be monitored by fluorescence (excitation, 544 nm; emission, 590 nm). Compounds identified in this screen will be further evaluated by coupling the glycerol-3-phosphate/triose phosphate isomerase/NADH assay to a phenazine methosulfate/tetranitroblue tetrazolium color reaction. False positives due to the dehydrogenases and diaphorase inhibition will be eliminated, and selectivity assay will triage inhibitors of mammalian triose phosphate isomerase and the Class I FBPA. G. lamblia FBPA inhibitors identified by the in vitro analyses will be examined for growth inhibition of Giardia trophozoites, and for cytotoxicity in human cells.
Step,Parameter,Value,Description
1,Enzyme reagent,2 uL,40 nM FBPA
2,Compound,23 nL,3.68 nM-57.5 uM final concentration
3,Time,10 min,RT Incubation
4,Substrate/detection Reagent,2 uL,Substrate + enzyme coupling system + AmpLite Red kit
5,Time,20 min,RT Incubation
6,Detector,525 nm/598 nm (Fluorescence),ViewLux Fluorescence Read (Read 1)
1,Medium-binding black solid-bottom Kalypsys plates. FRD or Kalypsys dispenser, 2 uL of FBPA enzyme. Bottle kept at 4C.
2,Compound Library (10 mM ,1:5 dilution). Pin-transferred for a [final] range of 3.68 nM-57.5 uM.
4,FRD or Kalypsys dispenser, 2 uL of reaction mixture. Bottle kept at 4C and covered in foil to protect from light.
6,ViewLux Protocol 1194; Excitation filter wheel A (525/20 Pol; BODIPY TMR FP), Emission filter wheel B (598/25 S; BODIPY TMR FP S).
Keywords: Fructose-bisphosphate aldolase, FBPA , Giardia lamblia , Giardia, HTS, Inhibitors
% is scaled to controls: 0 for no effect and ±100 for the full control effect; potency is read from the fitted curve at half-maximal effect.
Also: nearly all actives have a fitted effect of over 55% in size.

SMILES	Potency	activity, negative = inhibition
CCCN(CCC)S(=O)(=O)c1ccc(C(=O)O)cc1	inactive	–
CCCCC1=CC2=CC(=O)C(C)(OC(=O)CC)C(=O)C2=CN1Cc1ccco1 (centres undefined)	–	inactive: -25.2% [at 12.9 µM]
O=C(O)CSc1cccc2cccnc12	–	inactive: -25.4%
CC(C)(C)[C@H]1C=C(C(=O)NCc2ccccc2)O[C@@H](OCc2ccc(CO)cc2)C1	–	inactive: -1.78%
CC1(C)OC1COc1c2occc2cc2ccc(=O)oc12 (centres undefined)	–	inactive: -5.39%
C[n+]1cc2c3c(ccc2c2ccc4cc5c(cc4c21)OCO5)OCO3	inactive	–
CCc1cc(-c2n[nH]c(=S)n2N)n(C)n1	active: 9.98 µM	–
Cc1ccccc1NC(=S)NNC(=O)c1ccco1	active: 7.94 µM	–
CN(C)[C@@H]1C(=O)C(C(N)=O)=C(O)[C@@]2(O)C(=O)C3=C(O)c4c(O)ccc(Cl)c4[C@@](C)(O)C3C[C@@H]12 (some centres undefined)	–	inactive: -19.5%
C=Cc1c(C)c2cc3[nH]c(cc4nc(cc5nc(cc1[nH]2)C(C)=C5CCC(=O)O)C(CCC(=O)O)=C4C)c(C)c3C=C	–	inactive: -4.28%
COc1cc(O)c2c(c1)oc(=O)c1c3cc(O)c(O)cc3oc21	–	inactive: -3.45%
c1cc(Cc2cnc[nH]2)ccn1	–	inactive: -12.4%
N[C@@H](CCC(=O)N[C@H](CSN=O)C(=O)NCC(=O)O)C(=O)O	–	inactive: -0.224%
NS(=O)(=O)c1ccc(NC2=CC(=O)C(=O)c3ccccc32)cc1	active: 2.51 µM	–
O=C(O)c1cc(O)c2c(c1)C(=O)c1cccc(O)c1C2=O	–	inactive: -20.9%
COC(=O)/C=C1/N/C(=N\c2nc(C)cc(C)n2)N(c2ccc(C)c(C)c2)C1=O	–	inactive: -24.2%
CCCc1cc(=O)[nH]c(=S)[nH]1	inactive	–
CC(=O)O[C@@]1(C(C)=O)CCC2C3C=C(Cl)C4=CC(=O)CC[C@]4(C)C3CC[C@]21C (some centres undefined)	–	inactive: -0.734%
COC(=O)CCCC1=CC2=C(c3ccccc3)C(=O)C(C)(OC(=O)C3CCCC3)C(=O)C2=CN1Cc1ccc(OC)cc1 (centres undefined)	–	inactive: -21.1% [at 12.9 µM]
COc1ccccc1CN1CCN(Cc2cc(OC)c(OC)cc2OC)CC1	active: 25.1 µM	–

SMILES	Potency	activity, negative = inhibition
COc1ccc2c(c1)c(CC(=O)O)c(C)n2C(=O)c1ccc(Cl)cc1	inactive	–
O=C(O)c1cc(=O)cc(C(=O)O)[nH]1	–	inactive: -6.07%
N#C/C(=C/c1ccc(-c2ccccc2[N+](=O)[O-])o1)C(N)=O	–	inactive: -27.1%
CN(C)[C@@H]1C(=O)C(C(N)=O)=C(O)[C@]2(O)C(=O)C3=C(O)c4c(O)ccc(Cl)c4[C@H](O)[C@H]3C[C@@H]12	–	inactive: -19.3% [at 21.7 µM]
CSc1ccc(CNc2ncc(-c3cccc([N+](=O)[O-])c3)n2C)cc1	active: 20 µM	–
Cc1c(O)c(=O)ccn1Cc1ccccc1	–	inactive: -6.72% [at 12.9 µM]
O=C(CCCN1C(=O)/C(=C/c2ccco2)SC1=S)Nc1cccc(C(=O)O)c1	active: 15.8 µM	–
COc1cc(NCc2ccc3nc(N)nc(N)c3c2C)cc(OC)c1OC	active: 5.61 µM	–
CCCCC1=CC2=C(c3ccco3)C(=O)C(C)(OC(=O)c3ccc(OC)cc3)C(=O)C2=CN1c1ccccc1 (centres undefined)	–	inactive: -17% [at 12.9 µM]
OCCN1CCN(CC/C=C2\c3ccccc3Sc3ccc(C(F)(F)F)cc32)CC1	–	inactive: -8.6% [at 21.7 µM]
CC(C)[C@@]1(NC(=O)[C@@H]2C[C@H]3c4cccc5[nH]cc(c45)C[C@@H]3N(C)C2)O[C@@]2(O)[C@H]3CCCN3C(=O)[C@H](Cc3ccccc3)N2C1=O	inactive	–
CC(C(=O)Nc1ccccc1F)N1CCN(C)CC1 (centres undefined)	active: 15.8 µM	–
CN[C@@H]1[C@H](O)[C@H](NC)[C@H]2O[C@@]3(O)C(=O)C[C@@H](C)O[C@H]3O[C@@H]2[C@H]1O	inactive	–
CC(CO)NC(=O)C1C=C2c3cccc4[nH]cc(c34)C[C@H]2N(C)C1 (some centres undefined)	–	inactive: 2.45%
C[C@@H](C(=O)O)c1cccc(C(=O)c2ccccc2)c1	–	inactive: 9.9% [at 21.7 µM]
O=c1oc2ccccc2c2oc3cc(O)c(O)cc3c12	–	inactive: -20%
CC(=O)c1cccc(NC(=S)N2CCc3ccccc32)c1	active: 25.1 µM	–
O=C(CC(NCc1ccccn1)C(=O)O)Nc1ccccc1Cl (centres undefined)	active: 6.29 µM	–
N#C/C(=C\c1ccc(O)c(O)c1)C(=O)NCCCc1ccccc1	–	inactive: 12.3%
CC(CN1CCCC1)OC(=O)c1cccc(F)c1 (centres undefined)	active: 17.8 µM	–

SMILES	Potency	activity, negative = inhibition
O=C1C=CC(=O)c2c(O)c(Cl)c(Cl)c(O)c21	active: 12.6 µM	–
CC[n+]1c(/C=C(/C)SC)sc2ccccc21	–	inactive: -4.43%
CCOC(=O)c1c(N)ssc1=S	–	inactive: -0.742%
COc1c(O)cc2oc(-c3ccc(O)c(O)c3)cc(=O)c2c1O	–	inactive: -24.4%
CCCn1nnc(NC(=S)NC(=O)/C=C/c2ccco2)n1	active: 15.8 µM	–
O=[N+]([O-])c1ccccc1S(=O)(=O)Nc1cccc2cccnc12	–	inactive: -18.2%
Nc1nc2ncc(CNc3ccc(C(=O)N[C@@H](CCC(=O)O)C(=O)O)cc3)nc2c(=O)[nH]1	inactive	–
COc1cc(O)c(C(CCN2CCN(c3ccccc3)CC2)c2ccc3c(c2)OCO3)c(OC)c1 (centres undefined)	–	inactive: -27.2%
CC(=O)CC(c1ccccc1)c1c(O)c2ccccc2oc1=O (centres undefined)	inactive	–
CC1=C/C(=C(/c2cc(C)c(O)c(Br)c2)c2ccccc2S(=O)(=O)O)C=C(Br)C1=O	–	inactive: -22.2%
Cc1ccccc1/C=N/n1c(-c2ccccn2)n[nH]c1=S	active: 3.97 µM	–
O=C(Nc1cccc(C(=O)Nc2ccc(S(=O)(=O)O)c3cc(S(=O)(=O)O)cc(S(=O)(=O)O)c23)c1)Nc1cccc(C(=O)Nc2ccc(S(=O)(=O)O)c3cc(S(=O)(=O)O)cc(S(=O)(=O)O)c23)c1	–	inactive: 29.7%
CC(=O)N(C)c1ccc(N=Nc2c(C)[nH]n(-c3ccccc3)c2=O)cc1	active: 4.47 µM	–
CCOc1cc(CC(=O)N[C@@H](CC(C)C)c2ccccc2N2CCCCC2)ccc1C(=O)O	–	inactive: 27.6% [at 21.7 µM]
[O-]/C(=C(\C(=S)Nc1cccc2ccccc12)[n+]1ccccc1)c1ccc2c(c1)OCCO2	active: 9.98 µM	–
NCCSSCCN	–	inactive: -1.18%
CN(C)[C@@H]1C(=O)C(C(N)=O)=C(O)[C@]2(O)C(=O)C3=C(O)c4c(O)ccc(Cl)c4[C@](C)(O)[C@H]3C[C@@H]12	–	inactive: -26.1% [at 21.7 µM]
CC(C(=O)O)c1cccc(C(=O)c2ccccc2)c1 (centres undefined)	inactive	–
O=C1ON=C(c2ccccc2)/C1=C/c1ccc(O)c(O)c1	active: 3.98 µM	–
